Laboratory results published in patent US20100204117A1, “CGRP AS A THERAPEUTIC AGENT” (priority 2008, published 2010).

Tested on: RAW 264.7 (Mouse leukaemic monocyte macrophage cell line) cells
Experiment: Phagocytosis assay (Fluorescein-labeled Escherichia coli, flow cytometry)
Settings: 10 micrograms per ml; RAW 264.7 cells; 30 min preincubation, 60 min ingestion

Substance: Ala-Cys-Asn-Thr-Ala-Thr-Cys-Val-Thr-His-Arg-Leu-Ala-Gly-Leu-Leu-Ser-Arg-Ser-Gly-Gly-Met-Val-Lys-Ser-Asn-Phe-Val-Pro-Thr-Asn-Val-Gly-Ser-Lys-Ala-Phe-NH2 [peptide 1]
- induction of phagocytosis as compared to the control experiment: did not induce phagocytosis
